According to PMC9365803, “Identification of a HTT-specific binding motif in DNAJB1 essential for suppression and disaggregation of HTT” (Nature Communications, 2022):

T1: HTTExon1Q48
T1 chain: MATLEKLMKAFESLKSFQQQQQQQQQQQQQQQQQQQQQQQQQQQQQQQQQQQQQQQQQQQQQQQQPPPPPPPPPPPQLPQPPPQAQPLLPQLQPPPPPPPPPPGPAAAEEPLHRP

T2: HTTExon1Q48 fibrils
T2 chain: T1 chain

B1: DNAJB1^wt (natural protein, human)
chain: MGKDYYQTLGLARGASDEEIKRAYRRQALRYHPDKNKEPGAEEKFKEIAEAYDVLSDPRKREIFDRYGEEGLKGSGPSGGSGGGANGTSFSYTFHGDPHAMFAEFFGGRNPFDTFFGQRNGEEGMDIDDPFSGFPMGMGGFTNVNFGRSRSAQEPARKKQ[about 150 residues not shown]PERIPQTSRTVLEQVLPI
B2: DNAJB1^H244A (natural protein, human)
chain: MGKDYYQTLGLARGASDEEIKRAYRRQALRYHPDKNKEPGAEEKFKEIAEAYDVLSDPRKREIFDRYGEEGLKGSGPSGGSGGGANGTSFSYTFHGDPHAMFAEFFGGRNPFDTFFGQRNGEEGMDIDDPFSGFPMGMGGFTNVNFGRSRSAQEPARKKQ[about 150 residues with changes not shown]PERIPQTSRTVLEQVLPI
notes: DNAJB1 (human Hsp40) with H244A; primers S1-T1 on this plasmid run from the start codon to the stop codon; Same SEC elution peak as the wild type (dimer); source: E. coli BL21-CodonPlus (DE3)-RIPL, purified (Ni-NTA; His-Smt3 tag cleaved with His-Ulp1); not shown: 6His-Smt3, N-terminal, cleaved

Assays:
HTTExon1Q48 = target: T1, HTTExon1Q48; test: cell-based or functional assay
HTTExon1Q48 fibrils [1] = target: T2, HTTExon1Q48 fibrils; test: cell-based or functional assay
HTTExon1Q48 fibrils [2] = target: T2, HTTExon1Q48 fibrils; test: co-sedimentation; HTT fibril-binding assay: 2 µM HTTExon1Q48 aggregated 4.5 h at 20 °C; DNAJB1 variant added at 1 µM, 1 h at RT; sedimented at 20.000 rpm 30 min 4 °C; pellet analysed by Western blot; conditions: both partners purified
[3] = target: the molecule itself; test: SEC; Superdex 75 10/300 GL and Superose 6; 30 mM HEPES-KOH pH 7.4, 50 mM KCl, 1 mM β-mercaptoethanol; 0.5 ml/min; Conalbumin and Ovalbumin as standards

| Binder | half-life (T1/2) of HTTExon1Q48 fibrilization, FRET assay, with Hsc70, Apg2 and ATP (HTTExon1Q48) [h] | re-solubilization of preformed HTTExon1Q48 fibrils with Hsc70, Apg2 and ATP, relative to DNAJB1^wt (HTTExon1Q48 fibrils [1]) [%] | fibril binding relative to DNAJB1^wt (HTTExon1Q48 fibrils [2]) [%] | binding result [3] |
| --- | --- | --- | --- | --- |
| B1 | 27 |  |  |  |
| B2 | 10 | ~50 | ~30 | binds |
